Data taken from the supplement of paper PMC11417369.
± gives the standard deviation of the averaged measurements. Some of the results follow.

system: PfAP2-LT AP2 domain (GST-tagged); test: gcPBM binding intensity (ln(normalized median fluorescence intensity)); higher = stronger DNA binding
Method in brief: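 Binding intensity values are the highest Masliner-normalised natural-log median intensity among replicate spots of either probe orientation. The binding step lasted 1 h in 1× PBS with 1% milk, 0.2 mg/ml BSA, 0.5% salmon testes DNA and 0.03% Triton X-100, using GST-tagged P. falciparum DNA-binding domains expressed in E. coli on an Agilent 4 × 180k array of primer-extended double-stranded 36-bp intergenic genomic probes plus negative controls. Alexa488 anti-GST antibody and a 488 nm scan detected bound protein.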

Row | Sequence | gcPBM binding intensity (ln)
1 | TTTTAAAAATAATAAATAAATAAAATTGAAGTTCCA [CACACA_negctrl_site305] | 8.12 ± 0.45
2 | TATATTTATTTATATACACACACTTGTATAAAAAAT [CACACA_site2036] | 8.81 ± 0.39
3 | TATATACAGAAACACACACACACATATATATATATA [CACACA_site2247] | 10.15 ± 0.057
4 | TATATCAAAATACATACACACATTTGTATATACATT [CACACA_site2696] | 9.05 ± 0.44
5 | TTAAATATTTTTAGAGTGCATGTAATAAAAATATAA [GTGCAC_site9414] | 8.43 ± 0.44
6 | TATCTATATGGGAACACACTCATAAATATATATCTA [CACACA_site4815] | 8.76 ± 0.41
7 | TATATATATATATTTACACACATTCATATAAATTCA [CACACA_site3532] | 9.04 ± 0.28
8 | AATATGAACGGACACACACACACAAAAAAAAAAAAA [CACACA_site5154] | 10 ± 0.64
9 | GCCTACAGACTTAGTAGTACATGAGAAGATATATAT [XGTACX_site2269] | 8.79 ± 0.28
10 | AAAATTTTTAAATATTGTACTATTTATTTTTAGCAT [XGTACX_site6190] | 8.51 ± 0.45
11 | AAATAATATTTATACACACACACATATTTATATACA [CACACA_site6403] | 9.66 ± 0.11
12 | TTATTTTATTTTGAAGCATGCTTTTTGCTGTGATAA [TGCATGCA_site278] | 8.46 ± 0.43
13 | TTATGCGTTTGCAAAAGTACATATCTATTATTTTTA [XGTACX_site7609] | 8.53 ± 0.4
14 | TATAAAAATATTTAATGTACGAATCTGTGATATATC [XGTACX_site7881] | 8.54 ± 0.45
15 | ATATATTACATATGTGTGCACGTTCCAAAATTTTTA | 9.19 ± 0.33
16 | CTAAACAGAATTATCACACATATAAATATAAACATA [CACACA_site4560] | 8.79 ± 0.42
17 | TTTTCATGTTGTAAAGCATGCTTTACTCATAAAAAA [TGCATGCA_site917] | 8.29 ± 0.5
18 | ATTATTAAAAGAAGAAGTACTTATATATTAATATTA [XGTACX_site5227] | 8.4 ± 0.48
19 | GGTCTTATTTTTAGTAGTACAAATATAATATACATA [XGTACX_site6483] | 8.57 ± 0.44
20 | TTTTTTTTTTTTTGTTGTACCCATCATATATACATA [XGTACX_site4342] | 8.66 ± 0.47
21 | CAACTAACATATATTCAACACACATATACCTTCAAC [CACACA_site8988] | 9.18 ± 0.29
22 | ATAATATCATAATATTGTACATATTTTATTTTAAAT [XGTACX_site1115] | 8.55 ± 0.4
23 | TTTTTTGTTTGAATGGTGCATTTTGTAATTATATTT | 8.84 ± 0.43
24 | TTAAAATAGATATTAGTGCAAAAAAAAAAAAATAAA | 8.64 ± 0.57
25 | TTTTGATATAAATATTAGATTAATAAATAAAAAAAT [CACACA_negctrl_site1635] | 8.34 ± 0.49
